Measurements as given in US20260022143A1, “Cyclic Peptide Inhibitors of IL-23” (JANSSEN PHARMACEUTICA NV, priority 2022, published 2026).
Structures can show the parent of a compound that is named as a salt. Not every detail of the peptide structures is certain; ends, links or a residue may be inferred. Starred links: 1 amine or outer side, 2 acyl side, 3 side chain; linkers in the order of their positions; H or OH if unused. Positions of bridges follow the written chain, without caps; N, C: chain ends. Non-standard residues stand in square brackets, D forms with d. Residues, ends and D or L forms follow the SMILES beside them. Groups on a side chain read outwards from the residue. *: point of attachment. Me3N+(CH2)2O(CH2)2O(CH2)2CO = C[N+](C)(C)CCOCCOCCC(=O)*; CH2CH2OCH2CH2OCH2CH2NMe3+ = C[N+](C)(C)CCOCCOCC*; Trp(7-Me) = Cc1cccc2c(C[C@H](N)C(=O)O)c[nH]c12; d(hLys(Me3)) = C[N+](C)(C)CCCCC[C@@H](N)C(=O)O; PEG9 = NCCOCCOCCOCCOCCOCCOCCOCCOCCOCCC(=O)O; Hexanoyl(6-NMe3+) = C[N+](C)(C)CCCCCC(=O)*; X20 = C[N+](C)(C)CC[C@H](N[*:1])C(=O)[*:2]; γGlu = O=C(O)[C@H](CCC(=O)[*:2])N[*:1]; 2Nal = N[C@@H](Cc1ccc2ccccc2c1)C(=O)O; AEF = NCCOc1ccc(C[C@H](N)C(=O)O)cc1; X10 = C[N+](C)(C)C[C@H](CC(=O)O)N*; 3Pal = N[C@@H](Cc1cccnc1)C(=O)O; Myristoyl = CCCCCCCCCCCCCC(=O)*; Lys(Me) = CNCCCC[C@H](N)C(=O)O; Pen = CC(C)(S)[C@H](N)C(=O)O; X87 = COCCOCC[N+](C)(C)CCCC*; X4 = COCCOCCCN(CCCOCCOC)CC*; Thp = NC1(C(=O)O)CCOCC1; Dap = NC[C@H](N)C(=O)O; X3 = C[N+](C)(C)CCCCC*; AEEA = NCCOCCOCC(=O)O; Me2NCH2CH2 = CN(C)CC*; Tfa = O=C(C(F)(F)F)*; Sar = CNCC(=O)O

Biological target: T1, IL-23R (Homo sapiens, UniProt Q5VWK5)
T1 construct: host or cells: HEK293
T1 sequence (Q5VWK5 24-629): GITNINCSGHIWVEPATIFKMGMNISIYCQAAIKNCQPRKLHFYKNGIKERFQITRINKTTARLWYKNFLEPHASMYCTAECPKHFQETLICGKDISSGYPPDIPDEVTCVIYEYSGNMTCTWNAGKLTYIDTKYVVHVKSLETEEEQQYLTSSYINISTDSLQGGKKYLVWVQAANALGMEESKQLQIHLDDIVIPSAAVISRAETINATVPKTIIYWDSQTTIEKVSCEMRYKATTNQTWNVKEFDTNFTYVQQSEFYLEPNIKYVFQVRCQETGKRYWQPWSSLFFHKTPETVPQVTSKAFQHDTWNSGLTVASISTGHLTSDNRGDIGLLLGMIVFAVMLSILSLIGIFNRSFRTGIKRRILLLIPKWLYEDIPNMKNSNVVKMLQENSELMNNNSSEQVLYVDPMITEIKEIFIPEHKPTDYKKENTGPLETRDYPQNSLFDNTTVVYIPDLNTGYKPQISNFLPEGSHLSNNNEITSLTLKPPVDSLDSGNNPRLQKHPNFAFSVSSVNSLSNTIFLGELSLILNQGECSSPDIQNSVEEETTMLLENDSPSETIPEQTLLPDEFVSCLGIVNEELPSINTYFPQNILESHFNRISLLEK
Test: IL23R Reporter Assay
Format: cell-based
Details: HEK293 cells containing IL-23R, IL-12RP1 and STAT-inducible firefly luciferase reporter; 10 ng/mL IL-23 (EC90); 5 h at 37° C.

SMILES	IC50 [nM]
CC(=O)N[C@@H]1C(=O)N[C@@H](CC[N+](C)(C)C)C(=O)N[C@@H]([C@@H](C)O)C(=O)N[C@@H](Cc2c[nH]c3c(C)cccc23)C(=O)N[C@@H](CCCCN(C)C(C)=O)C(=O)N[C@H](C(=O)N[C@@H](Cc2ccc(OCCOCCOCC[N+](C)(C)C)cc2)C(=O)N[C@@H](Cc2ccc3ccccc3c2)C(=O)NC2(C(=O)N[C@@H](CCCCN(C)C(C)=O)C(=O)N[C@@H](CC(N)=O)C(=O)N[C@@H](Cc3cccnc3)C(=O)N(C)CC(=O)N(C)C)CCOCC2)C(C)(C)SSC1(C)C [compound 436] (Ac-[Pen][X20]T[Trp(7-Me)][Lys(Me)](Ac)[Pen]Y(CH2CH2OCH2CH2OCH2CH2NMe3+)[2Nal][Thp][Lys(Me)](Ac)N[3Pal][Sar]-NMe2; disulfide 1-6)	1.5
CC(=O)NCCCC[C@@H]1NC(=O)[C@H](Cc2c[nH]c3c(C)cccc23)NC(=O)[C@H]([C@@H](C)O)NC(=O)[C@H](CC(N)=O)NC(=O)[C@@H](NC(C)=O)C(C)(C)SSC(C)(C)[C@@H](C(=O)N[C@@H](Cc2ccc(OCCN)cc2)C(=O)N[C@@H](Cc2ccc3ccccc3c2)C(=O)NC2(C(=O)N[C@@H](CCCCNC(=O)CCOCCOCCOCCOCCOCCOCCOCCOCCOCCNC(C)=O)C(=O)N[C@@H](CC(N)=O)C(=O)N[C@@H](Cc3cccnc3)C(=O)N(C)CC(N)=O)CCOCC2)NC1=O [compound 45] (Ac-[Pen]NT[Trp(7-Me)]K(Ac)[Pen][AEF][2Nal][Thp]K([PEG9-Ac])N[3Pal][Sar]-NH2; disulfide 1-6)	7.1
CC(=O)NCCCC[C@@H]1NC(=O)[C@H](Cc2c[nH]c3c(C)cccc23)NC(=O)[C@H]([C@@H](C)O)NC(=O)[C@H](CC(N)=O)NC(=O)[C@@H](NC(=O)C(F)(F)F)C(C)(C)SSC(C)(C)[C@@H](C(=O)N[C@@H](Cc2ccc(OCCN)cc2)C(=O)N[C@@H](Cc2ccc3ccccc3c2)C(=O)NC2(C(=O)N[C@@H](CCCCNC(C)=O)C(=O)N[C@@H](CC(N)=O)C(=O)N[C@@H](Cc3cccnc3)C(=O)N(C)CC(N)=O)CCOCC2)NC1=O [compound 49] (Tfa-[Pen]NT[Trp(7-Me)]K(Ac)[Pen][AEF][2Nal][Thp]K(Ac)N[3Pal][Sar]-NH2; disulfide 1-6)	4.4
COCCOCCCN(CCCOCCOC)CCOc1ccc(C[C@H](NC(=O)[C@H]2NC(=O)[C@H](CCCCNC(C)=O)NC(=O)[C@H](Cc3c[nH]c4c(C)cccc34)NC(=O)[C@H]([C@@H](C)O)NC(=O)[C@H](CC(N)=O)NC(=O)[C@@H](NC(=O)CCCCC[N+](C)(C)C)C(C)(C)SSC2(C)C)C(=O)N[C@@H](Cc2ccc3ccccc3c2)C(=O)NC2(C(=O)N[C@@H](CNC(C)=O)C(=O)N[C@@H](CC(N)=O)C(=O)N[C@@H](Cc3cccnc3)C(=O)N(C)CC(N)=O)CCOCC2)cc1 [compound 205] ({Hexanoyl(6-NMe3+)}-[Pen]NT[Trp(7-Me)]K(Ac)[Pen]Y(X4)[2Nal][Thp][Dap](Ac)N[3Pal][Sar]-NH2; disulfide 1-6)	4
CCCCCCCCCCCCCC(=O)N[C@@H](CCC(=O)NCCOCCOCC(=O)NCCOCCOCC(=O)NCCCC[C@@H]1NC(=O)[C@H](Cc2c[nH]c3c(C)cccc23)NC(=O)[C@H]([C@@H](C)O)NC(=O)[C@H](CC(=O)N(C)C)NC(=O)[C@@H](NC(=O)[C@@H](CCCCC[N+](C)(C)C)NC(=O)COCCOCCNC(=O)COCCOCCNC(=O)CC[C@H](NC(=O)CCCCCCCCCCCCC)C(=O)O)C(C)(C)SSC(C)(C)[C@@H](C(=O)N[C@@H](Cc2ccc(OCCCCC[N+](C)(C)C)cc2)C(=O)N[C@@H](Cc2ccc3ccccc3c2)C(=O)NC2(C(=O)N[C@@H](CCCCN(C)C(C)=O)C(=O)N[C@@H](CC(N)=O)C(=O)N[C@@H](Cc3cccnc3)C(=O)N(C)CC(=O)N(C)C)CCOCC2)NC1=O)C(=O)O [compound 325, C14gEPEG2PEG2CO-hk(Me)3-Pen(3)-N(N(Me)2)-T-7MeW-K(PEG2PEG2gEC14)-Pen(3)-TMAPF-2Nal-THP-K(NMeAc)-N-3Pya-Sar-CON(Me)2] ({Myristoyl-γGlu-AEEA-AEEA}-[d(hLys(Me3))][Pen]D(NMe2)T[Trp(7-Me)]K([AEEA-AEEA-γGlu-Myristoyl])[Pen]Y(X3)[2Nal][Thp][Lys(Me)](Ac)N[3Pal][Sar]-NMe2; disulfide 2-7)	200
CC(=O)NCCCC[C@@H]1NC(=O)[C@H](Cc2c[nH]c3c(C)cccc23)NC(=O)[C@H]([C@@H](C)O)NC(=O)[C@H](CC(N)=O)NC(=O)[C@@H](NC(C)=O)C(C)(C)SSC(C)(C)[C@@H](C(=O)N[C@@H](Cc2ccc(OCCN)cc2)C(=O)N[C@@H](Cc2ccc3ccccc3c2)C(=O)NC2(C(=O)N[C@@H](CCC(=O)N[C@@H](CC(=O)O)C[N+](C)(C)C)C(=O)N[C@@H](CC(N)=O)C(=O)N[C@@H](Cc3cccnc3)C(=O)N(C)CC(N)=O)CCOCC2)NC1=O [compound 128] (Ac-[Pen]NT[Trp(7-Me)]K(Ac)[Pen][AEF][2Nal][Thp]E(X10)N[3Pal][Sar]-NH2; disulfide 1-6)	0.79
COCCOCC[N+](C)(C)CCCCOc1ccc(C[C@H](NC(=O)[C@H]2NC(=O)[C@H](CCCCNC(C)=O)NC(=O)[C@H](Cc3c[nH]c4c(C)cccc34)NC(=O)[C@H]([C@@H](C)O)NC(=O)[C@H](CC(N)=O)NC(=O)[C@@H](NC(C)=O)C(C)(C)SSC2(C)C)C(=O)N[C@@H](Cc2ccc3ccccc3c2)C(=O)NC2(C(=O)N[C@@H](CCC(=O)O)C(=O)N[C@@H](CC(N)=O)C(=O)N[C@@H](Cc3cccnc3)C(=O)N(C)CC(N)=O)CCOCC2)cc1 [compound 549] (Ac-[Pen]NT[Trp(7-Me)]K(Ac)[Pen]Y(X87)[2Nal][Thp]EN[3Pal][Sar]-NH2; disulfide 1-6 (inferred))	7.3
CC(=O)NCCCC[C@@H]1NC(=O)[C@H](Cc2c[nH]c3c(C)cccc23)NC(=O)[C@H]([C@@H](C)O)NC(=O)[C@H](CC(N)=O)NC(=O)[C@@H](NC(=O)[C@@H](CCCCNC(=O)CCOCCOCC[N+](C)(C)C)NC(C)=O)C(C)(C)SSC(C)(C)[C@@H](C(=O)N[C@@H](Cc2ccc(OCCN)cc2)C(=O)N[C@@H](Cc2ccc3ccccc3c2)C(=O)NC2(C(=O)N[C@@H](CCC(=O)O)C(=O)N[C@@H](CC(N)=O)C(=O)N[C@@H](Cc3cccnc3)C(=O)N(C)CC(N)=O)CCOCC2)NC1=O [compound 84] (Ac-[dK](Me3N+(CH2)2O(CH2)2O(CH2)2CO)[Pen]NT[Trp(7-Me)]K(Ac)[Pen][AEF][2Nal][Thp]EN[3Pal][Sar]-NH2; disulfide 2-7)	3.5
CC(=O)NCCCC[C@@H]1NC(=O)[C@H](Cc2c[nH]c3c(C)cccc23)NC(=O)[C@H]([C@@H](C)O)NC(=O)[C@H](CC(N)=O)NC(=O)[C@@H](NC(C)=O)C(C)(C)SSC(C)(C)[C@@H](C(=O)N[C@@H](Cc2ccc(OCCN)cc2)C(=O)N[C@@H](Cc2ccc3ccccc3c2)C(=O)NC2(C(=O)N[C@@H](CCCCNC(=O)CCCCC[N+](C)(C)C)C(=O)N[C@@H](CC(N)=O)C(=O)N[C@@H](Cc3cccnc3)C(=O)N(C)CC(N)=O)CCOCC2)NC1=O [compound 85] (Ac-[Pen]NT[Trp(7-Me)]K(Ac)[Pen][AEF][2Nal][Thp]K(Hexanoyl(6-NMe3+))N[3Pal][Sar]-NH2; disulfide 1-6)	3.7
CC(=O)NCCCC[C@@H]1NC(=O)[C@H](Cc2c[nH]c3c(C)cccc23)NC(=O)[C@H]([C@@H](C)O)NC(=O)[C@H](CC(N)=O)NC(=O)[C@@H](NC(C)=O)C(C)(C)SSC(C)(C)[C@@H](C(=O)N[C@@H](Cc2ccc(OCCN(C)C)cc2)C(=O)N[C@@H](Cc2ccc3ccccc3c2)C(=O)NC2(C(=O)N[C@@H](CNC(C)=O)C(=O)N[C@@H](CC(N)=O)C(=O)N[C@@H](Cc3cccnc3)C(=O)N(C)CC(N)=O)CCOCC2)NC1=O [compound 102] (Ac-[Pen]NT[Trp(7-Me)]K(Ac)[Pen]Y(Me2NCH2CH2)[2Nal][Thp][Dap](Ac)N[3Pal][Sar]-NH2; disulfide 1-6)	5.5
